Reference: PubChem BioAssay AID686979 (National Center for Advancing Translational Sciences (NCATS), 2013)
Hit rate of the full screen: of about 420,000 compounds, about 50,000 (12%) were called active. Inconclusive means that the source gave no clear call. Such entries were picked first, then a sample of the others. Calls come from the whole dose curve; as a rule, active = well fitted inhibition curve with a large enough effect; inconclusive = small, poorly fitted or top-dose-only effect; inactive = flat fitted curve, though single readings scatter. Potencies of inconclusive entries are left out as doubtful fits.

Assay: qHTS for Inhibitors of human tyrosyl-DNA phosphodiesterase 1 (TDP1): qHTS in cells in presence of CPT; note: nearly all actives have a fitted effect of over 55% in size
Conditions: chicken DT40 Tdp1-/-;hTDP1 cells + 20 nM CPT, ATP luminescence, 48 h; activity change, negative = growth inhibition: at 46.2 µM (top of the series)
How it was run: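 Cell growth measured by CellTiter-Glo luminescence after a minimum 48 h, 37 C compound exposure with 20 nM CPT in Tdp1-knockout DT40 cells stably expressing hTDP1, seeded 400/well; qHTS titration format.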
% is set by controls: 0 for no effect and ±100 for the full control effect; potency is the fitted concentration of half-maximal effect; tags give direction and shape of the fitted curve.

Row | SMILES | Potency | activity change, negative = growth inhibition
1 | CC(C)N(Cc1ccccc1)C(=O)c1cc2ccc3cccnc3c2[nH]1 | active: 16.4 µM | 
2 | CCOC(=O)N1CCN(CC(=O)Nc2c(C(=O)OC)[nH]c3cc(C)ccc23)CC1 | inconclusive [inhibitor, partial curve, poor fit] | 
3 | O=C(Cc1ccccc1)Nc1ccc(NC(=O)c2cccs2)cc1Cl | inconclusive [inhibitor, single point] | 
4 | CC1(C)C2CCC1(CS(=O)(=O)Nc1ccccc1)C(=O)C2 (stereo unspecified) | inactive | 
5 | Cc1ccc(CC2(C)C(=O)Nc3c(Cl)cccc32)cc1 (stereo unspecified) | inconclusive [inhibitor, single point] | 
6 | C=C(C)COc1ccc2c(C)c(CCC(=O)NC3CC3)c(=O)oc2c1 | active: 18.4 µM | 
7 | CCCC1=C(C(=O)OCC)C(c2ccc(N(C)C)cc2)n2ncnc2N1 (stereo unspecified) | inconclusive [inhibitor, single point] | 
8 | CC(=O)c1cc(-c2ccc(F)cc2)n(CC(=O)NCc2cccs2)c1C | inconclusive [inhibitor, partial curve, poor fit] | 
9 | COc1ccc(C(C(=O)Nc2ccc(C(C)C)cc2)N(C)C(=O)Cc2cccs2)cc1 (stereo unspecified) | inconclusive [inhibitor, single point] | 
10 | COC(=O)C(c1ccccc1)C(C(=O)OC)c1ccccc1 (stereo unspecified) | inactive | 
11 | S=C(Nc1ccc(Oc2ccccc2)cc1)Nc1cccnc1 | inconclusive [inhibitor, single point] | 
12 | O=C(COC(=O)c1ccc(Sc2ccccc2)c([N+](=O)[O-])c1)NC1CCCc2ccccc21 (stereo unspecified) | inactive | 
13 | CCCCN1CC(N2CCN(C(=O)c3ccco3)CC2)CS1(=O)=O (stereo unspecified) | inactive | 
14 | O=C(NCc1ccncc1)[C@@H]1CCCN1C(=O)[C@@H]1CCCN1C(=O)c1cccc2ccccc12 | inactive | 
15 | OC(c1ccccc1)(c1ccccc1)c1nccn1-c1ccccc1 | inconclusive [inhibitor, single point] | 
16 | O=C(c1nc2ccccn2c1CNCCOc1cccnc1)N1CCOCC1 | inactive | 
17 | O=C(Cc1csc2ccccc12)NCc1ccc(F)cc1 | inactive | 
18 | CCN(CC)Cc1oc(CO)cc(=O)c1O | inactive | 
19 | O=C(Nc1ccc(OC(F)(F)F)cc1)C1CCCN(S(=O)(=O)c2ccc(Br)s2)C1 (stereo unspecified) | inconclusive [inhibitor, partial curve] | 
20 | Cc1cccc(Nc2nc(NCc3ccco3)nc(N3CCOCC3)n2)c1 | inconclusive [inhibitor, partial curve, poor fit] | 
21 | CNc1cncc(-c2ccc(CN3CCOCC3)cc2)n1 | inconclusive [inhibitor, single point] | 
22 | CC(Oc1ccc(F)cc1Br)c1nc2ccccc2c(=O)[nH]1 (stereo unspecified) |  | inconclusive: -33.4% [inhibitor]
23 | Cc1cccc(NS(=O)(=O)c2cccc(C(=O)N3CCCC3)c2)c1 | inactive | 
24 | Cc1cc(Cl)cc(Br)c1OCCCNCC(C)O (stereo unspecified) | inactive | 
25 | O=C(C(Cc1ccccc1)N1C(=O)c2ccccc2C1=O)N1c2ccccc2CCc2ccccc21 (stereo unspecified) | active: 11.6 µM | 
26 | NC(=NCc1ccccc1)NN=Cc1ccnc2ccccc12 | active: 20.6 µM | 

Row | SMILES | Potency | activity change, negative = growth inhibition
27 | Cc1ccccc1Nc1nnc(-c2ccc(C)c(S(=O)(=O)N3CCN(C)CC3)c2)c2ccccc12 | inconclusive [inhibitor, single point] | 
28 | Cc1ncc2c(c1CNC(=O)c1cncs1)CCN(C(=O)c1cccc(-c3cccc(F)c3)c1)C2 | inactive | 
29 | CN(C)c1ccc(-c2nc3ccccc3n2C)cc1 | active: 13 µM | 
30 | O=C(CCc1nnc(Cc2ccc(-c3ccccc3)cc2)o1)N1CCCC1 | inconclusive [inhibitor, single point] | 
31 | CN(C)c1ccc(N=Nc2ccccc2C(=O)OCC(=O)N(C)C2CCCCC2)cc1 | inactive | 
32 | Cc1cc(=O)oc2cc(OCc3ccc(C(=O)N4CCN(c5ccccc5)CC4)cc3)ccc12 | inconclusive [inhibitor, single point] | 
33 | COc1ccc(C(C(=O)NC2CCCC2)N(Cc2cccs2)C(=O)c2ccn[nH]2)cc1OC (stereo unspecified) | inactive | 
34 | CCCN(CCO)Cc1cccc(Cl)c1 | inactive | 
35 | CC(=O)Nc1ccc2c(c1)C(=Nc1ccccc1)c1ccccc1-2 | inconclusive [inhibitor, partial curve] | 
36 | CC(=O)Oc1ccc2ccccc2c1C(NC(=O)C(C)C)c1cccc([N+](=O)[O-])c1 (stereo unspecified) | inconclusive [inhibitor, single point] | 
37 | COc1ccc2cc3cc(C(=O)N4CCCCC4C)oc3nc2c1 (stereo unspecified) | active: 16.4 µM | 
38 | O=C1C(Cc2ccccc2)Nc2ncnc(N3CCc4ccccc4C3)c2N1Cc1ccccc1 (stereo unspecified) | inconclusive [inhibitor, single point] | 
39 | CC(C)(C)[C@@H]1C=C(C(=O)Nc2ccccc2)O[C@H](OCc2ccc(CO)cc2)C1 | active: 23.1 µM | 
40 | CCC(C)OC(=O)C1=C(C)NC2=C(C(=O)C(C(=O)OC)C(C)C2)C1c1ccc(N(C)C)cc1 (stereo unspecified) | inconclusive [inhibitor, partial curve, poor fit] | 
41 | COc1ccc(C(=O)NCC(c2cccnc2)N2CCN(c3ccccc3OC)CC2)cc1 (stereo unspecified) | active: 18.4 µM | 
42 | CCc1ccc(OCC(=O)N/N=C(\C)c2ccccc2OC(F)F)cc1 | active: 16.4 µM | 
43 | O=[N+]([O-])c1ccc(/C=N/n2c(-c3cccnc3)n[nH]c2=S)cc1 | inactive | 
44 | COc1cccc(NC(c2nnc(-c3ccccc3)o2)c2ccc(F)cc2Cl)c1 (stereo unspecified) | inconclusive [inhibitor, single point] | 
45 | CC(C)=NNc1nc(-c2ccccc2)c(C)s1 | inconclusive [inhibitor, single point] | 
46 | O=C(c1ccccc1Oc1ccccc1)N1CCN(c2ccc(F)cc2)CC1 | inconclusive [inhibitor, single point] | 
47 | COc1ccc(Br)cc1CNC(=O)CN1C(=O)CCCc2ccccc21 | inconclusive [inhibitor, partial curve] | 
48 | CN1C[C@@H]2[C@@H]3C(=O)N(C)C(=O)[C@@H]3[C@](Cc3ccccc3)(C1=O)N2C(=O)c1ccc(Cl)cc1 | inactive | 
49 | CNC(=O)C(NC(=O)c1ccccc1)=C(C)C | inactive | 
50 | C#CC(C)(CC)NC(=O)Cn1nnc(-c2ccc(OCc3ccccc3Cl)cc2)n1 (stereo unspecified) | inconclusive [inhibitor, full curve] | 
51 | Cc1cc(NC(=O)CSC2=NS(=O)(=O)c3cc(Cl)ccc3N2)no1 | inactive | 
52 | CC(C)(C)c1ccc(C(=O)Nc2nc3nc(-c4ccccc4)cc(=O)n3[nH]2)cc1 | inactive | 

Row | SMILES | Potency | activity change, negative = growth inhibition
53 | Cc1ccc(NC(=O)Cn2c(SCc3cccc(F)c3)nc3ccncc32)c(C)c1 | inconclusive [inhibitor, single point] | 
54 | CN1C2=CC=CC=CC2=[N+](C)C12C([N+](=O)[O-])=CC(=[N+]([O-])[O-])C=C2[N+](=O)[O-] (stereo unspecified) | inconclusive [inhibitor, partial curve, poor fit] | 
55 | Cc1cccc(C(=O)N2CCN(c3ccc(C(F)(F)F)cn3)CC2)c1C | active: 13 µM | 
56 | COc1cccc(C(=O)NCC(=O)N2CCN(c3ccc(C(F)(F)F)cn3)CC2)c1 | active: 7.31 µM | 
57 | COc1cc(-c2nnc3n2N=C(c2ccccc2)CS3)cc(OC)c1OC | active: 1.46 µM | 
58 | COCCCNC(=O)C1CCCN(c2ncnc3onc(C)c23)C1 (stereo unspecified) | active: 18.4 µM | 
59 | COc1ccc(CCNC(=O)c2ccc3c(Cl)c4c(nc3c2)CCCC4)cc1OC | active: 14.6 µM | 
60 | COc1ccc(-c2nc3ncccc3n2O)cc1 | inactive | 
61 | CCCN(CCC)C(=O)c1c[nH]c2ccc(S(=O)(=O)N(C)c3ccc(OCC)cc3)cc2c1=O | inconclusive [inhibitor, single point] | 
62 | COc1ccc(C=O)cc1COc1ccc(F)cc1F | inconclusive [inhibitor, single point] | 
63 | CC(c1ccccc1)n1c(-c2ccc(Cl)cc2)n[nH]c1=S (stereo unspecified) | inconclusive [inhibitor, single point] | 
64 | O=C(CN1CCN(c2ccccn2)CC1)Nc1ccc(Oc2ccccc2)cc1 | inconclusive [inhibitor, single point] | 
65 | Cc1cc(C)cc(CN2CCC(Oc3ccc(C(=O)N4CCCC4)cc3)CC2)c1 | active: 20.6 µM | 
66 | CCCCCCCCN1C(=O)[C@H](CC(=O)NCCC(C)C)C[C@@]2(C(=O)OCC)CCCC=C12 | active: 13 µM | 
67 | CCOc1ccc2oc(C(=O)OC(C(=O)NC(N)=O)C(C)C)c(C)c2c1 (stereo unspecified) | inactive | 
68 | CCCc1nc2ccccc2c(C(=O)OC2CCOC2=O)c1CC (stereo unspecified) | inconclusive [inhibitor, single point] | 
69 | COc1ccc(NC(=O)CCNC(=O)c2ccco2)cc1Cl | inactive | 
70 | Cc1cccc(CNc2ccnc(-c3ccoc3)n2)c1 | inconclusive [inhibitor, single point] | 
71 | CCCc1nc(SCC(=O)NNC(=O)c2ccc(OC)cc2)c2ccccc2n1 | inactive | 
72 | Cc1cc(C)cc(NC(=O)CSc2nnc(Cc3cccn3C)n2-c2ccc(F)cc2)c1 | inactive | 
73 | COc1cccc(NC(=O)CCc2nc(-c3ccccc3F)no2)c1 | inconclusive [inhibitor, partial curve] | 
74 | COc1ccc(NC(=O)COc2ccccc2C(N)=O)cc1S(=O)(=O)N1CCCCC1 | inactive | 
75 | COc1cccc(NC(=O)CSC2=Nc3ccccc3C3=NC(CC(=O)NCc4cccs4)C(=O)N23)c1 (stereo unspecified) | active: 10.3 µM | 
76 | COc1ccc(C2c3ccc(O)cc3Oc3ncn4nc(-c5cccnc5)nc4c32)cc1OC (stereo unspecified) | inconclusive [inhibitor, single point] | 
